Laboratory results reported in PubChem BioAssay AID651820 (National Center for Advancing Translational Sciences (NCATS), 2012).
Hit rate of the full screen: of about 340,000 compounds, about 12,000 (3.5%) were called active. Inconclusive results, whose numbers are uncertain, are shown with a selection of clear calls. The call rests on the fitted dose curve; in most records, active means well fitted inhibition curve with a large enough effect; inconclusive means small, poorly fitted or top-dose-only effect, or another doubt; inactive means no such curve, though single readings can be large or run the other way. Potencies of inconclusive entries are left out as doubtful fits.

Assay: qHTS Assay for Inhibitors of Hepatitis C Virus (HCV)
Conditions: Huh7.5.1 HCVcc-Cre (HCVcc is cell-culture hepatitis C virus) infection, luciferase reporter, 44 h; activity change, negative = inhibition: at 41.8 µM (top of the series)
How it was run: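 1,000 cells/well; 4 h culture; + compound; + HCVcc-Cre (~0.5 moi); 44 h; luciferase substrate, RT 15 min; read 15 sec.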
On the % scale 0 is the no-effect control and ±100 the full control effect; potency means the concentration at half of the fitted maximal effect; tags describe the fitted curve by direction and shape.

Structure (SMILES) | Potency | activity change, negative = inhibition
O=C(NCc1cccnc1)c1cc(Sc2ccccc2Cl)nc2ccccc12 | inconclusive [inhibitor, single point] | –
CCCn1c(SCC(=O)Nc2cccc(S(=O)(=O)N(C)C)c2)nc2ccccc2c1=O | inconclusive [inhibitor, single point] | –
CCCCCn1c(=O)c(C(=O)NCc2ccco2)c(O)c2ccccc21 | inconclusive [inhibitor, full curve] | –
COc1cc2c3nnc(-c4ccc(F)cc4)c-3cn(Cc3ccc(C)cc3)c2cc1OC | – | inactive: 6.4%
CCOc1ccccc1NC(=O)COc1coc(CN2CCCc3ccccc32)cc1=O | active: 12.6 µM | –
CSCC[C@H](NC(=O)C1CCN(S(=O)(=O)c2ccc(C)cc2C)CC1)c1nc2ccccc2[nH]1 | inconclusive [inhibitor, single point] | –
COc1cccc(NC2c3ccccc3C(=O)N2Cc2ccco2)c1 (configuration not stated) | inconclusive [inhibitor, single point] | –
COc1ccc(/C=N\NC(=O)c2ccc(-c3ccccc3)cc2)cc1COC(C)=O | inconclusive [inhibitor, partial curve] | –
COc1ccc(NC(=O)N(CCCN(C)C)Cc2cc3cc(OC)ccc3[nH]c2=O)cc1 | inconclusive [inhibitor, single point] | –
CCOC(=O)c1c(CSc2nc(C)cc(C)c2C#N)n(C)c2cc(Br)c(OC(C)=O)cc12 | inconclusive [inhibitor, full curve] | –
O=C(c1ccc(CS(=O)c2ccccc2Cl)o1)N1CCN(c2ccccn2)CC1 (configuration not stated) | inconclusive [inhibitor, partial curve] | –
O=C(NC1CCCCC1)C(c1ccc2ncccc2c1)N(Cc1ccc2c(c1)OCO2)C(=O)c1cccs1 (configuration not stated) | inconclusive [inhibitor, single point] | –
Cc1ccc(C(=O)N(CCCN(C)C)c2nc3ccc(Cl)cc3s2)cc1C | inconclusive [inhibitor, partial curve, poor fit] | –
Cc1ccc2ccc[n+](Cc3ccccc3)c2c1 | inconclusive [inhibitor, single point] | –
CSc1nnc2ccc(-c3ccc(C)cc3)nn12 | inconclusive [inhibitor, single point] | –
CN(CC(=O)N1CCN(c2ccccc2)CC1)S(=O)(=O)c1cccs1 | inconclusive [inhibitor, single point] | –
CCn1ncc([N+](=O)[O-])c1C(=O)Nc1ccc(C(=O)N2CCCCC2)cc1 | – | inactive: -2.34%
